Data published in US20240368248A1 (VEGENICS, published 2024).

T1: VEGF-C 109 (minimal VEGF-C fragment with 109 residues)
T1 construct: Not naturally occurring minimal fragment
T1 chain: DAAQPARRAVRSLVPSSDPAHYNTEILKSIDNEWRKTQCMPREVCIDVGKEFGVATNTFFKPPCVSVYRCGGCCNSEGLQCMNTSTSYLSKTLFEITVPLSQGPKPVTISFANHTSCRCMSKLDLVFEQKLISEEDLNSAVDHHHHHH

T2: VEGF-A 109 (minimal VEGF-A fragment with 109 residues)
T2 construct: Not naturally occurring minimal fragment
T2 chain: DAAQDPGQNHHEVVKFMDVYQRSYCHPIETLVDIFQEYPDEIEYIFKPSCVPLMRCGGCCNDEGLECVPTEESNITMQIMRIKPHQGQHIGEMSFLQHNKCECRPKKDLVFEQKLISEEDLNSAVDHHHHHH


How the values were obtained:
Assay in all cases: pull-down of labelled ligand with receptor-Fc and protein A sepharose, SDS-PAGE
[1] = molecular target: T1, VEGF-C 109 (minimal VEGF-C fragment …)
[2] = molecular target: T2, VEGF-A 109 (minimal VEGF-A fragment …)
[3] = molecular target: T1, VEGF-C 109 (minimal VEGF-C fragment …)

binding result [1]	binding result [2]	binding result [3]	Binder
–	no binding	–	R-2 H with CD33 Signal Peptide (VEGFR-2 residues 118-220, Fc fusion construct) (Fc fusion, CD33 signal peptide; also called R-2 H fragment) DKLASVQDYRSPFIASVSDQHGVVYITENKNKTVVIPCLGSISNLNVSLCARYPEKRFVPDGNRISWDSKKGFTIPSYMISYAGMVFCEAKINDESYQSIMYIVVVVGDPIEGRGGGGGD[human IgG1 Fc with changes left out]
–	–	no binding	R-3 K (VEGFR-3 residues 1-39, 132-229, Fc fusion construct) (Fc fusion, Ig domain 1 deleted) YSMTPPTLNITEESHVRDFEQPFINKPDTLLVNRKDAMWVPCLVSIPGLNVTLRSQSSVLWPDGQEVVWDDRRGMLVSTPLLHDALYLQCETTWGDQDFLSNPFLVHITGNELADPIEGRGGGGGD[human IgG1 Fc with changes left out]
no binding	no binding	–	R-2 K with CD33 Signal Peptide (VEGFR-2 residues 118-241, Fc fusion construct) (Fc fusion, CD33 signal peptide) DKLASVQDYRSPFIASVSDQHGVVYITENKNKTVVIPCLGSISNLNVSLCARYPEKRFVPDGNRISWDSKKGFTIPSYMISYAGMVFCEAKINDESYQSIMYIVVVVGYRIYDVVLSPSHGIELSVGEKDPIEGRGGGGGD[human IgG1 Fc with changes left out]
no binding	no binding	–	R-2 B with CD33 Signal Peptide (VEGFR-2 residues 24-220, Fc fusion construct) (Fc fusion, CD33 signal peptide) DKLASGTLEDGRGSLPSVSLDLPRLSIQKDILTIKANTTLQITCRGQRDLDWLWPNNQSGSEQRVEVTECSDGLFCKTLTIPKVIGNDTGAYKCFYRETDLASVIYVYVQDYRSPFIASVSDQHGVVYITENKNKTVVIPCLGSISNLNVSLCARYPEKRFVPDGNRISWDSKKGFTIPSYMISYAGMVFCEAKINDESYQSIMYIVVVVGDPIEGRGGGGGD[human IgG1 Fc with changes left out]
no binding	no binding	–	R-2 L with CD33 Signal Peptide (VEGFR-2 residues 220-326, Fc fusion construct) (Fc fusion, CD33 signal peptide) DKLASYRIYDVVLSPSHGIELSVGEKLVLNCTARTELNVGIDFNWEYPSSKHQHKKLVNRDLKTQSGSEMKKFLSTLTIDGVTRSDQGLYTCAASSGLMTKKNSTFVRVHEDPIEGRGGGGGD[human IgG1 Fc with changes left out]

Further lines, the binder ahead of its results:

Binder	binding result [1]	binding result [2]	binding result [3]
R-2 C with CD33 Signal Peptide (VEGFR-2 residues 24-226, Fc fusion construct) (Fc fusion, CD33 signal peptide) DKLASGTLEDGRGSLPSVSLDLPRLSIQKDILTIKANTTLQITCRGQRDLDWLWPNNQSGSEQRVEVTECSDGLFCKTLTIPKVIGNDTGAYKCFYRETDLASVIYVYVQDYRSPFIASVSDQHGVVYITENKNKTVVIPCLGSISNLNVSLCARYPEKRFVPDGNRISWDSKKGFTIPSYMISYAGMVFCEAKINDESYQSIMYIVVVVGYRIYDVDPIEGRGGGGGD[human IgG1 Fc with changes left out]	no binding	no binding	–
R-3 H (VEGFR-3 residues 1-134, Fc fusion construct) (Fc fusion) YSMTPPTLNITEESHVIDTGDSLSISCRGQHPLEWAWPGAQEAPATGDKDSEDTGVVRDCEGTDARPYCKVLLLHEVHANDTGSYVCYYKYIKARIEGTTAASSYVFVRDPIEGRGGGGGD[human IgG1 Fc with changes left out]	–	–	no binding
R-2 D with CD33 Signal Peptide (VEGFR-2 residues 24-232, Fc fusion construct) (Fc fusion, CD33 signal peptide) DKLASGTLEDGRGSLPSVSLDLPRLSIQKDILTIKANTTLQITCRGQRDLDWLWPNNQSGSEQRVEVTECSDGLFCKTLTIPKVIGNDTGAYKCFYRETDLASVIYVYVQDYRSPFIASVSDQHGVVYITENKNKTVVIPCLGSISNLNVSLCARYPEKRFVPDGNRISWDSKKGFTIPSYMISYAGMVFCEAKINDESYQSIMYIVVVVGYRIYDVVLSPSHDPIEGRGGGGGD[human IgG1 Fc with changes left out]	no binding	no binding	–
R-2 E with CD33 Signal Peptide (VEGFR-2 residues 24-241, Fc fusion construct) (Fc fusion, CD33 signal peptide) DKLASGTLEDGRGSLPSVSLDLPRLSIQKDILTIKANTTLQITCRGQRDLDWLWPNNQSGSEQRVEVTECSDGLFCKTLTIPKVIGNDTGAYKCFYRETDLASVIYVYVQDYRSPFIASVSDQHGVVYITENKNKTVVIPCLGSISNLNVSLCARYPEKRFVPDGNRISWDSKKGFTIPSYMISYAGMVFCEAKINDESYQSIMYIVVVVGYRIYDVVLSPSHGIELSVGEKDPIEGRGGGGGD[human IgG1 Fc with changes left out]	no binding	no binding	–
R-2 J with CD33 Signal Peptide (VEGFR-2 residues 118-232, Fc fusion construct) (Fc fusion, CD33 signal peptide) DKLASVQDYRSPFIASVSDQHGVVYITENKNKTVVIPCLGSISNLNVSLCARYPEKRFVPDGNRISWDSKKGFTIPSYMISYAGMVFCEAKINDESYQSIMYIVVVVGYRIYDVVLSPSHDPIEGRGGGGGD[human IgG1 Fc with changes left out]	–	no binding	–
R-2 F with CD33 Signal Peptide (VEGFR-2 residues 24-122, Fc fusion construct) (Fc fusion, CD33 signal peptide) DKLASGTLEDGRGSLPSVSLDLPRLSIQKDILTIKANTTLQITCRGQRDLDWLWPNNQSGSEQRVEVTECSDGLFCKTLTIPKVIGNDTGAYKCFYRETDLASVIYVYVQDPIEGRGGGGGD[human IgG1 Fc with changes left out]	no binding	no binding	–
R-2 I with CD33 Signal Peptide (VEGFR-2 residues 118-226, Fc fusion construct) (Fc fusion, CD33 signal peptide) DKLASVQDYRSPFIASVSDQHGVVYITENKNKTVVIPCLGSISNLNVSLCARYPEKRFVPDGNRISWDSKKGFTIPSYMISYAGMVFCEAKINDESYQSIMYIVVVVGYRIYDVDPIEGRGGGGGD[human IgG1 Fc with changes left out]	–	no binding	–
R-3 I (VEGFR-3 residues 1-39, 132-329, Fc fusion construct) (Fc fusion, Ig domain 1 deleted; domains 2 and 3 of VEGFR-3) YSMTPPTLNITEESHVRDFEQPFINKPDTLLVNRKDAMWVPCLVSIPGLNVTLRSQSSVLWPDGQEVVWDDRRGMLVSTPLLHDALYLQCETTWGDQDFLSNPFLVHITGNELYDIQLLPRKSLELLVGEKLVLNCTVWAEFNSGVTFDWDYPGKQAERGKWVPERRSQQTHTELSSILTIHNVSQHDLGSYVCKANNGIQRFRESTEVIVHEDPIEGRGGGGGD[human IgG1 Fc with changes left out]	–	–	no binding
R-3 J (VEGFR-3 residues 1-39, 132-247, Fc fusion construct) (Fc fusion, Ig domain 1 deleted; only domain 2 of VEGFR-3) YSMTPPTLNITEESHVRDFEQPFINKPDTLLVNRKDAMWVPCLVSIPGLNVTLRSQSSVLWPDGQEVVWDDRRGMLVSTPLLHDALYLQCETTWGDQDFLSNPFLVHITGNELYDIQLLPRKSLELLVGEKDPIEGRGGGGGD[human IgG1 Fc with changes left out]	–	–	no binding

Read-outs that look alike come from different tables or passages of the source.
